# About 6,400 (1.6%) of roughly 410,000 compounds were called active. Inconclusive results, whose numbers are uncertain, are shown with a selection of clear calls. The call rests on the fitted dose curve; in most records, active means well fitted inhibition curve with a large enough effect; inconclusive means small, poorly fitted or top-dose-only effect; inactive means no such curve, though single readings can be large or run the other way. No potency is given beside an inconclusive call; the fits are too rough.
# Biological target: Glucagon-like peptide 1 receptor (Homo sapiens) (UniProt P43220)
# Experiment: qHTS of GLP-1 Receptor Inverse Agonists (Inhibition Mode); further: nearly all actives have a fitted effect of over 55% in size
# Conditions: HEK293 GLP-1R CRE-luciferase, luminescence, 24 h; Potency: GLP-1R form is constitutively active unless noted; series mostly up to 38.3 µM
# Outline: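 Assay principle: reduced luminescence from a cAMP-responsive reporter in HEK293 cells co-expressing a constitutively active GLP-1R. Conditions: 24 hr compound incubation, 37 deg C, 5% CO2.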
# Potency means the concentration at half of the fitted maximal effect; tags describe the fitted curve by direction and shape.
# UniProt P43220, sequence (P43220 whole entry, looked up): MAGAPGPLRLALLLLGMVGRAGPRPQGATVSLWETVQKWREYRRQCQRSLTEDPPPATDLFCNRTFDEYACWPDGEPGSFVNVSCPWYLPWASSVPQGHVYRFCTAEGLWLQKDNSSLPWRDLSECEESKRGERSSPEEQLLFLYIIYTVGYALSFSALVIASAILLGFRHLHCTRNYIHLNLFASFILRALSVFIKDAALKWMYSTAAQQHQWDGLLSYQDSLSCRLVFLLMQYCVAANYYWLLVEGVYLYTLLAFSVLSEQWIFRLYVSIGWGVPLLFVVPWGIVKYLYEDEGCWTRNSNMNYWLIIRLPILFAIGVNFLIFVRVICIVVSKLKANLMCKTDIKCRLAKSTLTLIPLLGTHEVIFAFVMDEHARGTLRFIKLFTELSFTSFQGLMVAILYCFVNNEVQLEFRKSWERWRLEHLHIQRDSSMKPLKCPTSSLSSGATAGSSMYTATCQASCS
row,SMILES,Potency
1,C[C@H]1O[C@@H](OC2CC[C@]3(C=O)[C@H]4CC[C@]5(C)[C@@H](C6=CC(=O)OC6)CC[C@]5(O)[C@@H]4CC[C@]3(O)C2)CC2OC(C)(C)OC21 (some centres undefined),"inconclusive [inhibitor, full curve, poor fit]"
2,O=C(Oc1c(Br)cc(Br)c2cccnc12)N1CCCCC1,"inconclusive [inhibitor, partial curve, poor fit]"
3,CC1CN=C(NCCc2ccccc2)S1 (centres undefined),"inconclusive [inhibitor, single point]"
4,COc1cc(CNCCc2c[nH]c3ccccc23)cc(OC)c1,"inconclusive [inhibitor, single point]"
5,Cc1ccc(Cn2cc(C=O)c(-c3ccc(C)cc3)n2)cc1,"inconclusive [inhibitor, single point]"
6,CC(C(=O)Nc1ccc(Cl)cc1Cl)N1CC=C(c2ccccc2)CC1 (centres undefined),"inconclusive [inhibitor, single point]"
7,COC(=O)C1=C(c2cccc(OCc3ccccc3)c2)C[C@@H]2CC[C@H]1N2C(=O)NC1CCN(Cc2ccccc2)CC1,"inconclusive [inhibitor, partial curve, poor fit]"
8,CSc1ccc(CN2CCN(Cc3ccccc3Cl)CC2)cc1,"inconclusive [inhibitor, partial curve, poor fit]"
9,O=C(Cn1cc(C(=O)c2ccccc2F)c2ccccc21)NCc1ccco1,inactive
10,Cc1oc(-c2ccc(Cl)cc2)nc1CN1CCC(C(=O)NCCCN2CCN(c3cccc(Cl)c3)CC2)CC1,"inconclusive [inhibitor, full curve, poor fit]"
11,Cn1cccc1/C=C1/C(=O)NC(=S)N(Cc2ccc(F)cc2)C1=O,inactive
12,CCOc1ccc(S(=O)(=O)N(C)c2ccc(OCC(=O)N3c4ccc(C)cc4C4CN(C)CCC43)cc2)cc1 (centres undefined),"inconclusive [inhibitor, single point]"
13,Nc1ncnc2c1ccn2[C@@H]1O[C@H](CO)[C@@H](O)[C@H]1O,"inconclusive [inhibitor, full curve, poor fit]"
14,CCOP(=O)(OCC)c1nc(-c2ccc(Cl)cc2)oc1NCc1ccccc1,"inconclusive [inhibitor, partial curve, poor fit]"
15,COC12C(COC(N)=O)C3=C(C(=O)C(C)=C(N)C3=O)N1CC1C2N1C (centres undefined),"inconclusive [inhibitor, partial curve, poor fit]"
16,CCCCC(=O)N/N=C/c1c(O)n(Cc2ccco2)c(=O)[nH]c1=O,inactive
17,CCOc1cc2c(cc1OCC)-n1cccc1C(c1ccccc1OC)NC2 (centres undefined),"inconclusive [inhibitor, partial curve, poor fit]"
18,COc1cc(C(=O)OCc2cc(=O)c(O)co2)ccc1OC(F)F,"inconclusive [inhibitor, partial curve, poor fit]"
19,Nc1ccccc1C(=O)OCCOc1ccccc1,"inconclusive [inhibitor, single point]"
20,COC(=O)C1=C(c2ccc(Cl)c(C(F)(F)F)c2)C[C@@H]2CC[C@H]1N2C(=O)N1CCCC1,"inconclusive [inhibitor, single point]"

row,SMILES,Potency
1,COC12CCC3(CC1C(C)(O)C(C)(C)C)[C@H]1Cc4ccc(O)c5c4[C@@]3(CCN1CC1CC1)C2O5 (some centres undefined),"inconclusive [inhibitor, single point]"
2,C[C@]12CC[C@@H]3c4ccc(O)c(O)c4CC[C@H]3[C@@H]1CC[C@@H]2O,inactive
3,Clc1ccc(C(Cn2ccnc2)OCc2csc3c(Cl)cccc23)c(Cl)c1 (centres undefined),"inconclusive [inhibitor, single point]"
4,CCCCc1nc2ccccc2c(=O)n1-c1ccccc1[N+](=O)[O-],"inconclusive [inhibitor, partial curve]"
5,CCC(CC)NCc1c[nH]c2ccccc12,inactive
6,CC(C)c1ccc(C(O)P(=O)(OCc2ccccc2)c2ccc(N(C)C)cc2)cc1 (centres undefined),"inconclusive [inhibitor, partial curve, poor fit]"
7,O=C1NC(=O)N(Cc2ccco2)C(=O)/C1=C/C=C/c1ccco1,"inconclusive [inhibitor, single point]"
8,COC(=O)C1=C(c2ccc(-c3ccccc3)c(F)c2)C[C@@H]2CC[C@H]1N2C(=O)NCC1CC1,"inconclusive [inhibitor, partial curve, poor fit]"
9,CCNC(=O)C1CCCN(Cc2cc(C(F)(F)F)ccc2Cl)CC1 (centres undefined),"inconclusive [inhibitor, single point]"
10,CC12CC(c3ccccc3O1)C(C(=O)OCc1ccccc1)C(=O)N2 (centres undefined),"inconclusive [inhibitor, single point]"
11,COc1ccc(Cl)cc1NC(=O)CN1C(=O)CN=C(c2ccccc2)c2cc(Cl)ccc21,"inconclusive [inhibitor, partial curve, poor fit]"
12,COc1cc(OC)c(OC)cc1CN1CCN(C(=O)COc2ccc3ccccc3c2)CC1,"inconclusive [inhibitor, partial curve, poor fit]"
13,COc1ccc2c(c1)CCc1c(C(=O)Nc3c(C)nn(Cc4ccccc4C)c3C)noc1-2,active: 10 µM
14,CN1CC=C(/C=C/c2ccc(-c3ccccc3)cc2)CC1,"inconclusive [inhibitor, partial curve, poor fit]"
15,CCN(CCCl)c1cc(CN(C)C)cc(NC(=O)c2ccc(C(=O)Nc3cc(CN(C)C)cc(N(CC)CCCl)c3)cc2)c1,"inconclusive [inhibitor, full curve, poor fit]"
16,Oc1ccc(O)c2c1C1(Cl)C(Cl)=C(Cl)C2(Cl)C1(Cl)Cl,"inconclusive [inhibitor, full curve, poor fit]"
17,c1ccc(-c2ccc(-c3n(-c4ccccn4)c4ccccc4[n+]3-c3ccccn3)cc2)cc1,"inconclusive [inhibitor, single point]"
18,CC(N)C(=O)OC(C)(C)Cc1ccc(Cl)cc1 (centres undefined),"inconclusive [inhibitor, single point]"
19,CCC(=O)c1cn(Cc2ccc(C#N)cc2)c2ccccc12,"inconclusive [inhibitor, single point]"
20,CNCC(O)c1cccc(OC(=O)c2ccccc2C)c1 (centres undefined),inactive

row,SMILES,Potency
1,CN(C)Cc1ccccc1OC(=O)N(C)C,inactive
2,N#Cc1ncc(N=Cc2ccc(N(CCCl)CCCl)cc2)s1,"inconclusive [inhibitor, partial curve, poor fit]"
3,Cc1nc2cc(C(F)(F)F)ccc2n1C1CCN(Cc2nnnn2CCc2ccccc2)CC1,"inconclusive [inhibitor, single point]"
4,Cc1cccc(-n2c(/C=C/c3ccccc3O)nc3ccccc3c2=O)c1,"inconclusive [inhibitor, single point]"
5,CCn1ccnc1CN1CCCC(C(=O)c2cccc(C(F)(F)F)c2)C1 (centres undefined),"inconclusive [inhibitor, partial curve, poor fit]"
6,CCN1C(=O)c2ccccc2Sc2ccc(NC(=O)Cc3ccc(OC)c(OC)c3)cc21,"inconclusive [inhibitor, full curve, poor fit]"
7,CCOC(=O)c1ccc(-[n+]2c(-c3ccccc3)cc(-c3ccccc3)cc2-c2ccccc2)cc1,"inconclusive [inhibitor, partial curve, poor fit]"
8,COc1ccc(NC(=O)C(=O)NNC(=O)C(C)Oc2ccc(Cl)cc2Cl)cc1 (centres undefined),"inconclusive [inhibitor, single point]"
9,COc1ccc(OCC(=O)N2CCN(Cc3ccc4c(c3)OCO4)CC2)cc1,"inconclusive [inhibitor, full curve, poor fit]"
10,CSc1ccc(C(=O)C2CCCN(Cc3ccn[nH]3)C2)cc1 (centres undefined),"inconclusive [inhibitor, partial curve, poor fit]"
11,Cc1cccn2c(=O)c3c(nc12)N1CCCCCC1C1(C3)C(=O)N(C)C(=O)N(C)C1=O (centres undefined),"inconclusive [inhibitor, single point]"
12,CCCCn1c(O)c(C(CC)=NCCCN(C)C)c(=O)[nH]c1=O,inactive
13,CSCCC(c1nnnn1C(C)(C)C)N1CCC(n2c(=O)[nH]c3ccccc32)CC1 (centres undefined),inactive
14,O=c1c2ccccc2nc(/C=C/c2ccc(O)cc2)n1-c1ccccc1O,"inconclusive [inhibitor, partial curve]"
15,CSc1ccc(C(=O)C2CCCN(Cc3cc4ccccc4[nH]3)C2)cc1 (centres undefined),"inconclusive [inhibitor, single point]"
16,CC12CC[C@H]3[C@@H](CCC4(O)C[C@H](O)CCC34/C=N/NC(=O)c3ccccc3F)C1(O)CCC2C1=CC(=O)OC1 (some centres undefined),"inconclusive [inhibitor, single point]"
17,COc1ccc(NS(=O)(=O)c2ccc3c(c2)CCCN3C(=O)C2CCC2)cc1OC,"inconclusive [inhibitor, full curve, poor fit]"
18,CCOC(=O)C1=CC(=C2C(=O)N(CC)C(=S)N(CC)C2=O)c2ccccc2O1,"inconclusive [inhibitor, single point]"
19,C[C@H](CO)N1C[C@H](C)[C@@H](CN(C)Cc2ccc(-c3ccccc3)cc2)Oc2c(NC(=O)c3ccncc3)cccc2C1=O,"inconclusive [inhibitor, single point]"

# — PubChem BioAssay AID624417 (National Center for Advancing Translational Sciences (NCATS), 2012)
